Out of some 310,000 compounds screened, about 2,200 (0.71%) showed an effect of 50% or more. Effects have a minus sign here. The list shows a part of the results.
target: human ether-à-go-go-related gene (hERG) potassium channel (human, UniProt Q12809); assay: primary screen, population patch clamp on CHO cells stably expressing hERG
Sequence (Q12809 whole entry, looked up): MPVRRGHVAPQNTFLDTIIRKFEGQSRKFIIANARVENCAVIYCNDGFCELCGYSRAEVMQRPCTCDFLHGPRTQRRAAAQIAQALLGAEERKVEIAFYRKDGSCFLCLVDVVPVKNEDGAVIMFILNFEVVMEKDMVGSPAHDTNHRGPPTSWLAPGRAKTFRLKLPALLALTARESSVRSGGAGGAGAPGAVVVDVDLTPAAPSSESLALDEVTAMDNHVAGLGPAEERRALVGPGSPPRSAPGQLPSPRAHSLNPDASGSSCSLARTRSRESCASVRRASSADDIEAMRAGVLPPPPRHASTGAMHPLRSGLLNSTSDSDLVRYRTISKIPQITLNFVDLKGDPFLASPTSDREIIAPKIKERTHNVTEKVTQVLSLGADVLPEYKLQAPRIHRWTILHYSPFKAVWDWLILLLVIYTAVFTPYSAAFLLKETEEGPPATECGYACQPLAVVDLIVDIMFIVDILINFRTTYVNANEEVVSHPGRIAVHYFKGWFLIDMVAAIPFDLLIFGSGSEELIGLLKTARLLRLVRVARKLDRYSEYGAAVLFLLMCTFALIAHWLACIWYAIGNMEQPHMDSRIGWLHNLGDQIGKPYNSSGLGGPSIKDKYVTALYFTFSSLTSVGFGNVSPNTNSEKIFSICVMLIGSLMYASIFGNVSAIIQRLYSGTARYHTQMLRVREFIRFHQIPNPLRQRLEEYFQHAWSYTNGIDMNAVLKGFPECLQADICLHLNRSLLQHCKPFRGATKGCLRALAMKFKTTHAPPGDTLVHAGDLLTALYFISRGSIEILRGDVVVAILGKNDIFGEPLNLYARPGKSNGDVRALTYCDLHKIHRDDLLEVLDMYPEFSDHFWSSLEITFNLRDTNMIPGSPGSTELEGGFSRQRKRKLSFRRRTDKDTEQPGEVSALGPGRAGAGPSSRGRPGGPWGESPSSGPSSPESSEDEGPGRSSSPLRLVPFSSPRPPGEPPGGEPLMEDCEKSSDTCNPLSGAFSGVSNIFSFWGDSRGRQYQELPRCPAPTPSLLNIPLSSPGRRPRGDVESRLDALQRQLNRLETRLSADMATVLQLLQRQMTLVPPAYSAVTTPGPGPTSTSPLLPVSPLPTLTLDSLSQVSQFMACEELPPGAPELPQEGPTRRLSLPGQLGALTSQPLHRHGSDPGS

In order of rising “hERG current change (%, negative = inhibition) at 1uM” value:
1. CCn1c(COc2ccc(Cl)cc2)nnc1SCc1ccc(C#N)cc1  -42.9%
2. C[C@H](C(=O)CC(=O)OC(C)(C)C)[C@H](O)c1ccccc1  -14.6%
3. Cc1cc(C)n2nc(SCC(=O)Nc3ccc(S(=O)(=O)N(C)C)cc3)nc2n1  -6.87%
4. Cc1ccc(NC(=O)c2cc([N+](=O)[O-])ccc2N2CCOCC2)cc1C  -5.84%
5. COc1ccc(Cn2c(C)nnc2-c2cnn(C)c2N)cc1OC  -2.29%
6. COC(=O)c1cccc(OCC(O)Cn2cnc3cc(C)c(C)cc32)c1 (stereo not shown)  -1.69%
7. COc1ccc(-c2cn(-c3ccccc3)c3[n+]2CCS3)cc1  -0.559%
8. Cc1c(C(=O)NCc2cccnc2)oc2ccccc12  0.0118%
9. O=C(NC1CCS(=O)(=O)C1)c1cccc(Br)c1 (stereo not shown)  0.757%
10. O=C(CCC1COc2ccccc2O1)N1CCCC1 (stereo not shown)  1.96%
11. CCn1cc(C(=O)N2CCCc3ccccc32)c2cc(OC)c(OC)cc2c1=O  3%
12. O=C(C1CCCN(S(=O)(=O)c2cccs2)C1)N1CCc2ccccc2C1 (stereo not shown)  3.54%
13. COc1ccc(S(=O)(=O)N2CCC(C(=O)N3CCCCC3)CC2)cc1OC  4.02%
14. COc1ccc(CNC(=O)CCSCc2ccccc2C)cc1  4.42%
15. CCOC(=O)c1cnc2ccc(C)cc2c1N(C)Cc1ccccc1  4.62%
16. Cc1cc(Nc2cc(C(=O)O)ccc2C)n2ncnc2n1  5.05%
17. O=C(Cn1c(CO)nc2ccccc21)Nc1ccc2c(c1)OCCCO2  5.09%
18. CCc1nc2c(sc3nc4c(cc32)COC(C)(C)C4)c(=O)n1CCN(CC)CC  5.26%
19. c1ccc(CNc2nc3ccccc3[nH]2)cc1  5.57%
20. O=C(NCCS(=O)(=O)N1CCN(c2ccccc2F)CC1)C1CC(=O)N(c2ccc(F)cc2)C1 (stereo not shown)  5.78%
21. CC1CCCCN1c1nc(-c2ccncc2)nc2ccccc12 (stereo not shown)  5.83%
22. COc1cccc(C(=O)N2CCN(C3CCCCC3)CC2)c1.O=C(O)C(=O)O  6.64%
23. CN(Cc1ccccc1)C(=O)COC(=O)Cn1cnc2ccccc21  6.75%
24. O=C(CSc1nnnn1C1CC1)Nc1cccc(S(=O)(=O)N2CCCC2)c1  7.08%
25. COc1ccccc1-n1c(SCC(=O)OC(C)C)nc2cccnc21  7.63%
26. Cc1ccc(S(=O)(=O)NNC(=O)c2ccc3ccccc3n2)cc1  7.9%
27. Cc1cc(OCC(=O)Nc2cc(-c3nn4c(C)nnc4s3)ccc2C)ccc1Cl  7.93%
28. CCCCNC(=O)C1CCC(CNS(=O)(=O)c2ccc(NC(C)=O)cc2)CC1 (stereo not shown)  8.04%
29. O=C(O)c1c[nH]ccc1=O  8.13%
30. Cc1ccnc(NC(=O)c2cccc(NC(=O)c3ccccc3C)c2)c1  8.59%
31. CCOP(=O)(c1ccccc1)c1nc(-c2ccccc2C)oc1N1CCCCC1 (stereo not shown)  8.78%
32. CCOc1ccc(C(=O)O/N=C(\N)c2ccccn2)cc1OCC  9.6%
33. O=C(Nc1ccccc1)C1COc2ccccc2O1 (stereo not shown)  9.77%
34. Cc1csc(NC(=O)c2cc(C)on2)n1  9.84%
35. C1CC(CN2CCOCC2)CN(Cc2nc(CC3CC3)no2)C1 (stereo not shown)  9.95%
36. c1ccc(COc2ccc(CN3CCN(c4ccccn4)CC3)cc2)cc1  10.1%
37. CC(=O)c1ccc(NC(=O)CN2CCN(c3ncccn3)CC2)cc1.O=C(O)C(=O)O  10.4%
38. CCC(=O)Nc1cccc(-c2nnc(-c3ccccc3)o2)c1  10.5%
39. COc1cccc(-c2nc(CS(=O)(=O)CC(=O)NCCCN3CCOCC3)c(C)o2)c1  10.9%
40. CCN(CC)S(=O)(=O)c1ccc(NC2CCCc3ccccc32)nc1 (stereo not shown)  11.1%
41. COc1cc(OC)cc(C(=O)N[C@H](C(=O)NCCc2ccc(S(N)(=O)=O)cc2)C(C)C)c1  11.7%
42. O=C(O)CC1SC(=O)N(Cc2ccccc2)C1=O (stereo not shown)  12.3%
43. Nc1nc2ccc(Cc3ccncc3)cc2s1  12.5%
44. CCCCN(CC)C(=O)c1cc2c(=O)n3cccc(C)c3nc2s1  13.4%
45. CCC(C)N(C(=O)COC(=O)/C=C/c1ccc(O)c(OC)c1)C1CCS(=O)(=O)C1 (stereo not shown)  13.7%
46. CCN1CCc2ccccc2C1  13.8%
47. COc1ccc(-c2nc3c(c4nnc(SC(C)C(=O)Nc5ccc(C)cc5)n24)COC(C)(C)C3)cc1 (stereo not shown)  13.9%
48. COCCOC(=O)C1=C(N)OC(C)=C(C(=O)OC)C12C(=O)Nc1ccccc12 (stereo not shown)  14.5%
49. COc1ccc(N2CC(NS(=O)(=O)c3ccc4ccccc4c3)CC2=O)cc1OC (stereo not shown)  15.1%
50. O=C(Cn1ccc2ccccc2c1=O)NCCC(=O)Nc1cccnc1  15.5%
51. Cc1cccc(NC(=O)c2ccc3nccnc3c2)c1C  15.6%
52. C/C(=N\NC(=O)c1ccc([N+](=O)[O-])cc1Cl)c1ccccc1  16.5%
53. CS(=O)(=O)c1ccc(NC(=O)CCN2C(=O)NC3(CCCC3)C2=O)cc1  16.8%
54. Cc1nnsc1C(=O)Nc1ccc(S(=O)(=O)N2CCCCC2)cc1  17.9%
55. N/C(=N/O)c1cccn1Cc1ccccc1[N+](=O)[O-]  18.5%
56. COc1ccc(-n2nc(C(=O)NCC(=O)Nc3cc(OC)c(OC)c(OC)c3)c3ccccc3c2=O)cc1  18.7%
57. Cc1ccc(N=Cc2cc(Cc3ccccc3Cl)cc([N+](=O)[O-])c2O)c(O)c1  19%
58. Cc1ccc(C)c(OCCSc2nnc(C)c(=O)[nH]2)c1  21.5%

Reference: article PMC4336329 (PLoS ONE, 2015)
